Source: ChEMBL document CHEMBL4888484, “Replenishing the malaria drug discovery pipeline: Screening and hit evaluation of the MMV Hit Generation Library 1 (HGL1) against asexual blood stage Plasmodium falciparum ,using a nano luciferase reporter read-out” (2022)
In all, about 150,000 compounds went through this assay and about 540 (0.36%) showed an effect of 50% or more. This is one part of the list.

Each molecule was assayed on Plasmodium falciparum (assay: Primary screen in NF54 nanoGlo assay, in single point, at 2uM, 72h; a lower Z score goes with more inhibition). Settings: timepoint 72 hour.
Assay type: functional, Erythrocyte

With `CC(C)(C)C(=O)N1CCC[C@H](Oc2ccncc2Cl)C1` as the molecule, how does the “% Inhibition” value read?
The value was 2%.

What about the Z score of the same molecule?
The Z score was -0.28.

Which “% Inhibition” value does the source give for `COc1ccc(C(=O)N2CC3CC2CO3)cc1OC` (stereo unspecified) here?
The value was -17%.

What about the Z score of the same molecule?
Its Z score is 2.02.

Which “% Inhibition” value does the source give for `Cc1ccc(CN(Cc2ccc(C(O)(c3ccc(F)cc3)c3ccc(F)cc3)o2)CC(C)C)o1` here?
Its value is -10%.

What about the Z score of the same molecule?
The Z score was 1.22.

Which “% Inhibition” value does the source give for `CC(C)N1C(=O)C[C@H](NC(=O)Nc2nc3c(s2)CCC3(C)C)C1=O` here?
The value was -6%.

And the Z score?
Its Z score is 1.15.

Which “% Inhibition” value does the source give for `CC(C)(C)NC(=O)CN1CCC(CNc2ncc(Cl)cn2)CC1` here?
The value was -2%.

And the Z score?
Its Z score is 0.45.

What does the source list for `Cn1c(CN2CCCC2)nnc1[C@H]1CCCN(c2cc(N)nc(N)n2)C1`?
% Inhibition: -9%; Z score: 1.86

For `CN(C)c1ccc(NC(=O)N2CCN(c3ccccc3O)CC2)nc1`, which “% Inhibition” value is on record?
Its value is -9%.

What about the Z score of the same molecule?
Its Z score is 1.66.

Which results are given for `Cc1ccc(NC(N)=O)c(Br)c1`?
% Inhibition: 1%; Z score: -0.09

`CC(=O)N(C)CCc1noc([C@@H]2NCCOc3ccccc32)n1` was tested. Which “% Inhibition” value did it give?
The value was -4%.

What about the Z score of the same molecule?
The Z score was 0.73.

What does the source list for `Cc1ncc(C(=O)N2CCC(CCCc3ccccc3)CC2)c(O)n1`?
% Inhibition: -1%; Z score: 0.12

How did the “% Inhibition” value turn out when `Fc1ccccc1CN1CCN(Cc2nnc3n2CCCCC3)CC1` was run?
The value was -3%.

And the Z score?
The Z score was 0.39.

For `O=C(C[C@]1(c2ccccc2)CC(=O)N(Cc2ccc3c(c2)OCO3)C1=O)N1CCc2ccccc2C1`, which “% Inhibition” value is on record?
The value was 13%.

What about the Z score of the same molecule?
Its Z score is -1.7.

What does the source list for `O=S1(=O)CCC[C@H](NCc2cnn3ccccc23)C1`?
% Inhibition: -5%; Z score: 0.49

What does the source list for `COC1CCCCC1NC(=O)NCCN(C)C(C)C` (stereo unspecified)?
% Inhibition: -3%; Z score: 0.47

For `Cc1ccc(S(=O)(=O)C2(C(=O)NCc3ccc(N4CCCC4=O)cc3)CCCC2)cc1C`, which “% Inhibition” value is on record?
The value was -11%.

And the Z score?
Its Z score is 2.07.

With `O=S(=O)(NCCOc1ccccc1F)c1ccc2ccccc2c1` as the molecule, how does the “% Inhibition” value read?
The value was -2%.

What about the Z score of the same molecule?
The Z score was 0.36.

What does the source list for `O=C(COc1ccc(Cl)cc1Cl)N[C@H](c1cccnc1)C1CCOCC1`?
% Inhibition: -5%; Z score: 0.89

What does the source list for `Cc1ccc(Cn2c(=O)n(CCNC(=O)[C@H]3CCOC3)c3ncccc32)cc1`?
% Inhibition: -12%; Z score: 2.01

What does the source list for `COCCn1c(C)cnc1C[C@H]1CCN(C(=O)NCc2ccc(OC)cc2)C1`?
% Inhibition: -16%; Z score: 2.03

How did the “% Inhibition” value turn out when `Cc1cc(C(=O)N[C@@H](C)c2nnnn2C)nn1C(C)C` was run?
The value was -15%.

What about the Z score of the same molecule?
The Z score was 2.6.

With `Cc1cc(C)cc(-n2ccn3cc(-c4ccc(Cl)cc4)nc3c2=O)c1` as the molecule, how does the “% Inhibition” value read?
The value was 2%.

And the Z score?
Its Z score is -0.24.

For `COc1ccccc1CNC(=O)[C@H]1CCCN(S(C)(=O)=O)CCC(=O)NCC1`, which “% Inhibition” value is on record?
Its value is -15%.

And the Z score?
Its Z score is 2.78.

Which “% Inhibition” value does the source give for `COC[C@H]1CCCN(S(=O)(=O)NCc2nc3c(s2)CCCC3)C1` here?
The value was 0%.

And the Z score?
Its Z score is 0.01.

With `COc1cccc(N2CCC(N3CCC4(CC3)CNC(=O)O4)CC2)c1` as the molecule, how does the “% Inhibition” value read?
Its value is -2%.

And the Z score?
Its Z score is 0.35.

With `CN(C[C@H]1COc2ccccc2O1)C(=O)c1cn2ccsc2n1` as the molecule, how does the “% Inhibition” value read?
The value was -4%.

What about the Z score of the same molecule?
The Z score was 0.59.

`CC[C@@H](Cc1ccccc1)N(CC)C(=O)c1cnns1` was tested. Which “% Inhibition” value did it give?
Its value is 11%.

And the Z score?
Its Z score is -1.07.

Which “% Inhibition” value does the source give for `O=C(CCNCc1cc(Br)c2c(c1)OCO2)N1CCCC1` here?
The value was 16%.

What about the Z score of the same molecule?
Its Z score is -1.88.

Which “% Inhibition” value does the source give for `COc1ccc(-c2nn(-c3ccccc3)cc2CN2CC[C@H](N(C)C)C2)c(F)c1` here?
Its value is -3%.

What about the Z score of the same molecule?
Its Z score is 0.52.

What does the source list for `O=C(c1n[nH]c2c1CCCC2)N1CC[C@@H](Nc2nc3c(F)cccc3o2)C1`?
% Inhibition: -9%; Z score: 1.64

Which “% Inhibition” value does the source give for `COCCN(CC(=O)N(Cc1ccccc1)Cc1ccc(C)o1)C(=O)C1CCCC1` here?
Its value is 1%.

And the Z score?
The Z score was -0.16.

What does the source list for `CNS(=O)(=O)CC1CCCN1CC1CCC(C)O1` (stereo unspecified)?
% Inhibition: -5%; Z score: 0.75

`COCC(=O)N1CC[C@@]2(CCCN(CCCc3ccccc3)C2)C1` was tested. Which “% Inhibition” value did it give?
The value was 7%.

And the Z score?
Its Z score is -0.98.

`CCNC(=O)N1CCC(OC(C)=O)CC1` was tested. Which “% Inhibition” value did it give?
The value was -23%.

And the Z score?
Its Z score is 3.52.

With `O=C([C@@H]1C[C@H](COc2cccnc2)CN(Cc2ccncc2)C1)N1CCCC1` as the molecule, how does the “% Inhibition” value read?
Its value is -10%.

What about the Z score of the same molecule?
Its Z score is 1.97.

For `CS(=O)(=O)N1CCC(C(=O)N2CCc3sccc3C2)CC1`, which “% Inhibition” value is on record?
The value was -9%.

And the Z score?
Its Z score is 1.09.

Which “% Inhibition” value does the source give for `Cc1cn2ccc(NC(=O)NCC[C@H]3CC(=O)N(C)C3)cc2n1` here?
The value was -12%.

And the Z score?
Its Z score is 2.29.

With `C[C@@H]1CN(C2CCC(=O)N(Cc3ccccc3Cl)CC2)C[C@H](C)O1` (stereo partly specified) as the molecule, how does the “% Inhibition” value read?
Its value is -11%.

And the Z score?
Its Z score is 1.2.

`Cc1cc(NC(=O)CCN[C@@H](C)c2cc3ccccc3o2)no1` was tested. Which “% Inhibition” value did it give?
The value was -10%.

What about the Z score of the same molecule?
The Z score was 1.4.

`CC(C)n1ccnc1-c1ccc(C(=O)N(C)Cc2ccon2)cc1` was tested. Which “% Inhibition” value did it give?
Its value is -3%.

And the Z score?
The Z score was 0.53.

How did the “% Inhibition” value turn out when `Cc1cccc(-c2ncc(CN3CCC4(CC3)N=C(N(C)C)NC4=O)cn2)c1` was run?
The value was -7%.

And the Z score?
The Z score was 1.45.

For `COc1ccc([C@H]2N(/C(CN3CCCC3)=N\S(=O)(=O)c3ccc(C)cc3)CCCN2S(=O)(=O)c2ccc(C)cc2)cc1`, which “% Inhibition” value is on record?
Its value is 28%.

And the Z score?
Its Z score is -3.14.

What does the source list for `O=C(CC1CCOCC1)Nc1cc(C2CCCCC2)[nH]n1`?
% Inhibition: -1%; Z score: 0.13

What does the source list for `COc1cc(CN(C)Cc2ccc(C)o2)ccc1OC[C@@H](O)CN(C)C1CCCCC1`?
% Inhibition: -2%; Z score: 0.32

For `Nc1ccnc(N[C@H]2CCOC[C@@H]2Oc2cccc(F)c2)n1`, which “% Inhibition” value is on record?
Its value is -11%.

What about the Z score of the same molecule?
Its Z score is 2.16.

`CN1CCc2nc(C=Cc3cccc(OCc4cccc(C#N)c4)c3)[nH]c(=O)c2C1` was tested. Which “% Inhibition” value did it give?
Its value is 1%.

And the Z score?
The Z score was -0.08.

What does the source list for `CCCN1CC[C@H](Nc2ccc(C(C)C)nn2)C1`?
% Inhibition: -2%; Z score: 0.44

How did the “% Inhibition” value turn out when `CC(C)(C)OC(=O)N1CC(n2cc(-c3ccccn3)nn2)C1` was run?
Its value is -4%.

What about the Z score of the same molecule?
Its Z score is 0.51.

How did the “% Inhibition” value turn out when `O=C(CS(=O)(=O)Cc1ccc(F)cc1Cl)NCC1CC1` was run?
The value was -9%.

What about the Z score of the same molecule?
Its Z score is 1.18.

`CC(=O)N1CCN(C(=O)[C@H](C)n2c(Cc3ccccc3Cl)nc3cc(Cl)c(Cl)cc32)CC1` was tested. Which “% Inhibition” value did it give?
The value was -10%.

And the Z score?
The Z score was 1.31.

For `COCc1nc(CO[C@H]2CCCN(C(=O)CCc3ccccc3)C2)no1`, which “% Inhibition” value is on record?
The value was -19%.

What about the Z score of the same molecule?
Its Z score is 2.69.

What does the source list for `CO[C@@](C)(CNC(=O)NC1CCCC1)c1cccc(Cl)c1`?
% Inhibition: 11%; Z score: -1.35

Which results are given for `c1nc(N2CCOCC2)cc(N2CCC(OC3CCC3)CC2)n1`?
% Inhibition: -13%; Z score: 2.2

How did the “% Inhibition” value turn out when `CCN1CCN(C[C@@H]2CN(Cc3nc(-c4ccccc4)no3)C[C@@H]2CO)CC1` was run?
Its value is -14%.

What about the Z score of the same molecule?
Its Z score is 1.84.
